Test results published in PubChem BioAssay AID894 (National Center for Advancing Translational Sciences (NCATS), 2007).
Out of some 150,000 compounds screened, about 6,500 (4.3%) were called active. Inconclusive means that the source gave no clear call. Such entries were picked first, then a sample of the others. Calls follow the shape of the dose curve; as a rule, active = well fitted inhibition curve with a large enough effect (not every such curve was filed as active); inconclusive = small, poorly fitted or top-dose-only effect, or another doubt; inactive = no such curve, though single readings can be large or run the other way. Potencies of inconclusive entries are left out as doubtful fits.

These molecules were tested against 15-hydroxyprostaglandin dehydrogenase [NAD(+)] (Homo sapiens) (UniProt P15428) (assay: qHTS Assay for Inhibitors of HPGD (15-Hydroxyprostaglandin Dehydrogenase)). Settings: purified HPGD, NADH fluorescence kinetic, PGE2 substrate; activity change, negative = inhibition: hits give low values.
Method in brief: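 20 nM HPGD preincubated 15 min at room temperature with compound in 50 mM Tris-HCl pH 8, 0.01% Tween 20. Started with 1 mM NAD+ and 30 uM prostaglandin E2; NADH fluorescence (360/450 nm) read 5 times over 30-s intervals, last minus first.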
% is scaled to controls: 0 for no effect and ±100 for the full control effect; potency is read from the fitted curve at half-maximal effect; tags tell the direction and shape of the fitted curve.

Sequence of UniProt P15428 (P15428 whole entry, looked up): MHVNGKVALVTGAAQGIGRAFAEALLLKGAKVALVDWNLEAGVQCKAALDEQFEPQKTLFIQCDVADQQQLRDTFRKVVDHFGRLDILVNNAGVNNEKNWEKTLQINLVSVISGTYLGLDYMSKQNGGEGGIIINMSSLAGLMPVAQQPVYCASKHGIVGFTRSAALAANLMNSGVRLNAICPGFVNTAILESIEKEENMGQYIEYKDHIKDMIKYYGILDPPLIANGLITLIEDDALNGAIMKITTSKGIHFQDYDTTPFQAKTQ

Structure (SMILES) | activity change, negative = inhibition | Potency
COc1ccc(N2C(=O)[C@@H]3[C@H](C2=O)[C@H]2c4ccccc4C=CN2[C@@H]3C(=O)Nc2ccccc2)cc1 | inactive: -21.9% | 
CCC(=O)N1CCN(c2ccc(NC(=O)c3ccc(N4CCCC4)c([N+](=O)[O-])c3)cc2)CC1 | inactive: -4.11% | 
COc1ccc(/C=C2/SC(=O)N(CC(O)Cn3c4ccccc4c4ccccc43)C2=O)cc1 (stereo unspecified) |  | inconclusive [inhibitor, partial curve]
O=C1NC(c2ccc(-c3ccccc3[N+](=O)[O-])o2)C(C(=O)c2ccc(Cl)cc2)C(O)(C(F)(F)F)N1 (stereo unspecified) | inactive: -3.47% | 
Cc1ccc2c(c1)c1c(n2CC(O)Cn2nc(C)c(Br)c2C)CCCC1 (stereo unspecified) |  | inconclusive [inhibitor, partial curve]
COc1cc(C(c2sc3nc(C)nn3c2O)N2CC(C)CC(C)C2)cc(OC)c1OC (stereo unspecified) | inactive: -15.2% | 
CCOC(=O)N1CCC(N2C(=O)c3ccccc3C2Nc2ccc3c(C)cc(=O)oc3c2)CC1 (stereo unspecified) |  | inconclusive [inhibitor, partial curve]
O=C1CC(c2ccco2)CC(O)=C1C=Nc1cc(Cl)ccc1O (stereo unspecified) |  | active: 8.91 µM
O=C(Nc1ccccc1)c1cc2ccccc2[nH]1 | inactive: -6.75% | 
CN1CCN(C(=O)/C=C/c2ccc3c(c2)OCO3)CC1 |  | inconclusive [inhibitor, partial curve]
CC(C)OC(=O)c1ccc(NC(=O)Cn2c(-c3nonc3N)nc3ccccc32)cc1 | inactive: -5.93% | 
COc1ccc2ccccc2c1C1CC(=O)N2CN(C3CCCCC3)CSC2=C1C#N (stereo unspecified) |  | active: 17.8 µM
Cc1ccc(-c2nn(C)c(=O)c3ccccc23)cc1CO |  | active: 31.6 µM
COc1cccc(-c2cc(C(=O)O)no2)c1 |  | active: 5.62 µM
O=C(O)CCC/C=C\C[C@H]1C(=O)C[C@@H](O)[C@@H]1/C=C/[C@@H](O)CCc1ccccc1 | inactive: -7.04% | 
O=C(CSc1ccc(-c2nc3ccccc3[nH]2)cn1)Nc1ccc(S(=O)(=O)N2CCCC2)cc1 |  | inconclusive [inhibitor, partial curve]
O=C(/C=C/c1cccc([N+](=O)[O-])c1)NCCSCc1ccccc1Cl | inactive: -22.4% | 
O=c1c2ccccc2nc2c3ccccc3c(NCc3ccco3)nn12 |  | inconclusive [inhibitor, partial curve]
COC(=O)c1cc(OC)c(OC)cc1NC(=O)c1c(-c2ccccc2)noc1C |  | inconclusive [inhibitor, single point]
CC1(C)CC(=O)C(C=NCCN2CCN(C(=O)CC3CCCC3)CC2)=C(O)C1 | inactive: -6.27% | 
Cc1ccc(N2C(=O)c3ccccc3NC2C(C)Cc2ccc3c(c2)OCO3)cc1 (stereo unspecified) |  | inconclusive [inhibitor, partial curve]
O=P1(c2ccccc2)C=Cn2c1cc1c2CCCC1 (stereo unspecified) |  | inconclusive [inhibitor, single point]
O=C(COc1ccccc1)Nc1ccc(CSc2ccccc2)cc1 | inactive: -9.42% | 

Structure (SMILES) | activity change, negative = inhibition | Potency
CCOC(=O)C1CCCN(C(=O)c2cc(-c3ccc(C)cc3)on2)C1 (stereo unspecified) |  | active: 15.8 µM
COCCNc1oc(-c2ccc(C)cc2)nc1C#N |  | inconclusive [inhibitor, partial curve]
CCOC(=O)C(C#N)C(c1cccnc1)c1c(C)[nH][nH]c1=O (stereo unspecified) | inactive: -0.429% | 
CCCC1C2CN(C(C)C)CC=C2C(C#N)=C(N)C1(C#N)C#N (stereo unspecified) |  | inconclusive [inhibitor, partial curve]
CC(C)n1c(O)c(N=Nc2ccccn2)c2ccccc21 |  | inconclusive [inhibitor, partial curve]
COc1ccc2nc3oc(C(=O)NCc4cccs4)cc3cc2c1 |  | inconclusive [inhibitor, partial curve]
COc1cccc(CNC(=O)Cn2cccc2)c1 |  | active: 14.1 µM
COCCCNC(=O)/C=C/c1c(Cl)cccc1Cl |  | active: 15.8 µM
CN(c1ccc(OCC(=O)N2CCCCC2)cc1)S(=O)(=O)c1cccs1 |  | active: 14.1 µM
O=C(CNc1c(Br)cc(Br)cc1Br)NN=C1CCCCC1 | inactive: -11.8% | 
COc1ccc(C)cc1N(C(=O)COc1cccc(F)c1)c1nc2ccccc2s1 |  | inconclusive [inhibitor, single point]
O=C(CN1CCCC1)Nc1c2c(nc3ccccc13)N(Cc1ccccc1)CC2 |  | inconclusive [inhibitor, partial curve]
CCOc1ccc(-c2nnc3ccc(SCC(=O)Nc4nc5ccccc5s4)nn23)cc1 |  | inconclusive [inhibitor, single point]
O=C(c1ccc(COc2ccc(F)cc2)o1)n1cccn1 | inactive: -11.4% | 
COc1cccc(-n2c(SCC(=O)Nc3sc4c(c3C(N)=O)CCC4)nc3ccccc3c2=O)c1 |  | inconclusive [inhibitor, partial curve]
COC(=O)c1c(-n2cnnn2)sc(C)c1C |  | inconclusive [inhibitor, partial curve]
COc1cccc(S(=O)(=O)Nc2ccc(C(=O)NCc3ccco3)cc2)c1 |  | inconclusive [inhibitor, partial curve]
COc1cccc(OC)c1C(=O)N1CCN(c2ccccn2)CC1 |  | inconclusive [inhibitor, partial curve]
COc1ccc(CNC(=O)c2sc(=S)n(-c3ccc(OC)cc3)c2N)cc1 |  | active: 31.6 µM
Cn1c(-c2nc(-c3ccccc3)cs2)nc2ccccc21 |  | inconclusive [inhibitor, full curve]
O=C(NC1CCCCC1)Sc1ccc(Cl)cc1 |  | active: 8.91 µM
COc1cccc(C2CN(c3ccc(F)cc3F)N=C2c2cccs2)c1OC (stereo unspecified) |  | inconclusive [inhibitor, partial curve]
O=C(N/N=C/c1cn(-c2cccs2)nc1-c1ccccc1)c1ccccc1Cl |  | inconclusive [inhibitor, single point]
